The campaign covered roughly 310,000 compounds. About 18,000 (5.8%) were called active. The shares of active, inactive and inconclusive entries below differ from those in the screen. Calls follow the shape of the dose curve; as a rule, active = well fitted inhibition curve with a large enough effect; inconclusive = small, poorly fitted or top-dose-only effect, or another doubt; inactive = no such curve, though single readings can be large or run the other way. No potency is given beside an inconclusive call; the fits are too rough.
Test: Primary qHTS for delayed death inhibitors of the malarial parasite plastid, 48 hour incubation
Conditions: P. falciparum luciferase growth in erythrocytes; series mostly up to 28.7 µM; activity change, negative = inhibition: at the top concentration
Method in brief: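 Read-out is firefly luciferase luminescence from an integrated reporter in P. falciparum, so falling signal marks reduced parasite growth. Infected erythrocytes were at 2% hematocrit and 0.1% parasitemia (final) in Albumax-supplemented RPMI 1640.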
With `COc1ccc(OC)c(-c2nn(-c3ccccc3)cc2C(=O)NCC(c2ccco2)N2CCCC2)c1` (stereo not drawn) the Potency was active: 9.28 µM. With `Brc1ccc(CSc2ccc3nnc(-c4cccnc4)n3n2)cc1` the Potency was inconclusive [inhibitor, single point]. In the case of `O=C1c2ccc3c4c(ccc(c24)C(=O)N1c1cccc(O)c1)C(=O)N(c1cccc(O)c1)C3=O`, the Potency is reported as active: 1.85 µM. With `C=CCn1c(O)c(C(CC)=NCCC2=CCCCC2)c(=O)[nH]c1=O` the Potency was inconclusive [inhibitor, partial curve]. With `COc1ccc(OCC(=O)Nc2ccc3c(c2)nc(CCN2CCC(C)CC2)n3C)cc1` the Potency was inconclusive [inhibitor, single point]. For `O=C(CCc1nnc(CCC2CCCCC2)o1)NCCn1cccn1`, the “activity change, negative = inhibition” value was inactive: 4.26%. In the case of `Cc1ccc2nc(-c3ccccc3)cc(C(=O)N(C)CC(=O)Nc3ccccc3Br)c2c1`, the Potency is reported as active: 13.1 µM. With `O=C(O)c1ccccc1-c1ccccc1C(=O)NCc1cccc(C(F)(F)F)c1` the “activity change, negative = inhibition” value was inactive: -20.7%. With `Cc1ccc2nc(NC(=O)c3ccc(S(=O)(=O)N4CCCc5ccccc54)cc3)sc2c1` the Potency was inconclusive [inhibitor, single point]. For `Cc1cc(C)c2c(n1)sc1c(=O)n(Cc3ccc(F)cc3)cnc12`, the Potency was inconclusive [inhibitor, single point]. With `CCOC(=O)c1ccc(NC(=O)c2ccc(OC(C)C)c(OC)c2)cc1` the Potency was inconclusive [inhibitor, partial curve, poor fit]. For `COc1cc(NC(=O)C2=CC(c3ccc(C)cc3)=NS(=O)(=O)N2C)cc(OC)c1OC`, the Potency was inconclusive [inhibitor, partial curve, poor fit]. With `COc1ccc(/C=C/C(=O)Nc2cc(S(=O)(=O)N3CCOCC3)ccc2C)cc1OC` the “activity change, negative = inhibition” value was inactive: -29.4%. For `COC(=O)C1=C(c2ccc(OC(F)(F)F)cc2)C[C@@H]2CC[C@H]1N2C(=O)NCCOc1ccc(OC)cc1`, the Potency was inconclusive [inhibitor, partial curve]. With `COc1ccc(-c2cc(C(=O)Nc3ccccc3N3CCOCC3)c3ccccc3n2)cc1OC` the Potency was inconclusive [inhibitor, single point]. With `Cc1cccc(C(=O)N2CCCC(CCC(=O)N3CCN(c4ccccn4)CC3)C2)c1C` (stereo not drawn) the Potency was inconclusive [inhibitor, single point]. With `Cc1ccc(S(=O)(=O)N2[C@@H](c3ccccc3)C(C(=O)O)=CC[C@H]2c2cccc(Cl)c2)cc1` the “activity change, negative = inhibition” value was inactive: -13.4%. For `C[n+]1ccc(/C=C/c2c[nH]c3ccccc23)cc1`, the Potency was active: 0.738 µM.

— PubChem BioAssay AID504832 (National Center for Advancing Translational Sciences (NCATS), 2011)
% is scaled to controls: 0 for no effect and ±100 for the full control effect; potency is read from the fitted curve at half-maximal effect; tags tell the direction and shape of the fitted curve.
